Measured values taken from paper PMC4199508.
Changes are numbered by the printed parent chain. These are yes or no findings as the source states them, for the method shown. In cells and extracts the contact can be indirect. Some entries that bind do so weakly or less than the wild type. Where a sequence is shown, tags or fusion partners need not be part of it.

Columns and labels:
Assay in all cases: co-IP; fission yeast cell extracts; lysis and wash buffer 50 mM Tris pH 8.0, 150 mM NaCl, 10% glycerol, 5 mM EDTA, 0.5% NP40; IP with anti-myc or anti-FLAG and Dynabeads Protein G, western blot; Tpz1-Pot1 also in ccq1Δ poz1Δ cells (anti-myc IP of Tpz1-myc)
[1] = biological target: T1, Tpz1-myc (full length Tpz1, Tpz1-FL, expressed in fission yeast) (Schizosaccharomyces pombe) (UniProt O14246)
T1 sequence: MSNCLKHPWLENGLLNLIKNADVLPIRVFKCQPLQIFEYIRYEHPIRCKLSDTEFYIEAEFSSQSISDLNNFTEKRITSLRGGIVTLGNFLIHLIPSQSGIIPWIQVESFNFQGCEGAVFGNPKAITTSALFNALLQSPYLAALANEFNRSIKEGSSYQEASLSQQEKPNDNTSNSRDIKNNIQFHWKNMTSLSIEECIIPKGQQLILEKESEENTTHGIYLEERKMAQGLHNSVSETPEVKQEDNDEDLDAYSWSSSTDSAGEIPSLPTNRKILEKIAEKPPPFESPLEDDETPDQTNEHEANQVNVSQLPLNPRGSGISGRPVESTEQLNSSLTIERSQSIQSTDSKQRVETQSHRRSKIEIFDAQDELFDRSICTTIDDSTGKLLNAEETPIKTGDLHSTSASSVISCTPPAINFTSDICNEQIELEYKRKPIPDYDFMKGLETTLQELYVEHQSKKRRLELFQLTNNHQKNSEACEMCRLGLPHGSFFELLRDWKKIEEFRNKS

[2] = biological target: T2, Tpz1-Y439R,L445R (myc-tagged, expressed in fission yeast) (Schizosaccharomyces pombe) (UniProt O14246)
T2 sequence: T1 sequence with Y439R, L445R

[3] = biological target: T3, Tpz1-[1–485] (C-terminally truncated Tpz1, myc-tagged, expressed in fission yeast) (Schizosaccharomyces pombe) (UniProt O14246)
T3 sequence: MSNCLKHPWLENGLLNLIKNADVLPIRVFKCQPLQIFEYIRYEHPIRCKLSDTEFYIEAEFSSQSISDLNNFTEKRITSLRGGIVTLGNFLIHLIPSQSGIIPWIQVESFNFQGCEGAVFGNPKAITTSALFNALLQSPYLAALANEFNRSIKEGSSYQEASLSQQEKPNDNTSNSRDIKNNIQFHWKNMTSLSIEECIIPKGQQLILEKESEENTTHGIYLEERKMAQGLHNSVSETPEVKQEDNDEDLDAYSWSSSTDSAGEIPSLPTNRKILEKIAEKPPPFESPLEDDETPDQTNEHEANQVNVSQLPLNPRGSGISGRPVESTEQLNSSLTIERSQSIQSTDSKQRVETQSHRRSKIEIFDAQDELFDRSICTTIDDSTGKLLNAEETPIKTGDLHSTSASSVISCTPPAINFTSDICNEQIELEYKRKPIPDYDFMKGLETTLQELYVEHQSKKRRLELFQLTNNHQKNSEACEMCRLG

[4] = biological target: T4, Tpz1-L449R (myc-tagged, expressed in fission yeast) (Schizosaccharomyces pombe) (UniProt O14246)
T4 sequence: T1 sequence with L449R

binding [1]: binds
binding [2]: binds
binding [3]: binds
binding [4]: binds
B1: Pot1-FLAG (expressed in fission yeast) (protein, UniProt O13988 1-555)
chain: MGEDVIDSLQLNELLNAGEYKIGELTFQSIRSSQELQKKNTIVNLFGIVKDFTPSRQSLHGTKDWVTTVYLWDPTCDTSSIGLQIHLFSKQGNDLPVIKQVGQPLLLHQITLRSYRDRTQGLSKDQFRYALWPDFSSNSKDTLCPQPMPRLMKTGDKEEQFALLLNKIWDEQTNKHKNGELLSTSSARQNQTGLSYPSVSFSLLSQITPHQRCSFYAQVIKTWYSDKNFTLYVTDYTENELFFPMSPYTSSSRWRGPFGRFSIRCILWDEHDFYCRNYIKEGDYVVMKNVRTKIDHLGYLECILHGDSAKRYNMSIEKVDSEEPELNEIKSRKRLYVQNCQNGIEAVIEKLSQSQQSENPFIAHELKQTSVNEITAHVINEPASLKLTTISTILHAPLQNLLKPRKHRLRVQVVDFWPKSLTQFAVLSQPPSSYVWMFALLVRDVSNVTLPVIFFDSDAAELINSSKIQPCNLADHPQMTLQLKERLFLIWGNLEERIQHHISKGESPTLAAEDVETPWFDIYVKEYIPVIGNTKDHQSLTFLQKRWRGFGTKIV
